Test results as given in publication PMC8190280, “Structure and mechanism of the human NHE1-CHP1 complex” (Nature Communications, 2021).

Target: the molecule itself
Experiment: cryo-EM structure; NHE1-CHP1^Na/7.5: co-expressed and co-purified complex in MSP1D1/POPC nanodiscs, 150 mM NaCl, pH 7.5; 3.3-Å map focused on the NHE1 TMD; CHP1 not resolved

B1: human sodium/proton exchanger 1 (NHE1) (natural protein)
chain: not shown
notes: human NHE1 (SLC9A1), 815 amino-acid residues, […]; cDNA amplified from an HEK293 cDNA library; model built for […] only; residues of the cleavage site may remain at the C-terminus; The sample migrated as core- and fully glycosylated forms (~95 and ~110 kDa); the true N-terminus was not determined; also called SLC9A1; Na+/H+ exchanger 1; source: HEK293F cells (BacMam baculovirus), co-expressed …
stoichiometry N: 2
